The target of experiment [1] is T1, GST-RCAR14 (Arabidopsis thaliana) (UniProt O80992).
T1 sequence: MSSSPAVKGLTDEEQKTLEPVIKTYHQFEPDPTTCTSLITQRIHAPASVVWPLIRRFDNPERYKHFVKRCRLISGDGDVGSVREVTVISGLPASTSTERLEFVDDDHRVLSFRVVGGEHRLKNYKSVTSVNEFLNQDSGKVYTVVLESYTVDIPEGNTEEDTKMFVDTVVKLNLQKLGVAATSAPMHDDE
The experiment is described as follows: pull-down; GST-RCARs bound to glutathione Sepharose 4B resin; His-CARK1-KD or His-CARK1-KD^N204A co-incubated 1 h at room temperature; 50 ug of each protein; SDS-PAGE and anti-His blot; both purified.

Amino acid sequences for entries named in this document (tags omitted).
UniProt Q8VZS8: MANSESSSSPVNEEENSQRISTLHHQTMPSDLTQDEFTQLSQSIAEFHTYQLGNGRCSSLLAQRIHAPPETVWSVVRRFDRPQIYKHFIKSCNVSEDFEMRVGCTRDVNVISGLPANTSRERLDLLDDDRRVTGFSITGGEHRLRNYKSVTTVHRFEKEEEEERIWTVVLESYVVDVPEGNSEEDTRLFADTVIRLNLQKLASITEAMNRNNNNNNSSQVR

The target of experiment [2] is T2, GST-RCAR13 (Arabidopsis thaliana) (UniProt Q9SSM7).
T2 sequence: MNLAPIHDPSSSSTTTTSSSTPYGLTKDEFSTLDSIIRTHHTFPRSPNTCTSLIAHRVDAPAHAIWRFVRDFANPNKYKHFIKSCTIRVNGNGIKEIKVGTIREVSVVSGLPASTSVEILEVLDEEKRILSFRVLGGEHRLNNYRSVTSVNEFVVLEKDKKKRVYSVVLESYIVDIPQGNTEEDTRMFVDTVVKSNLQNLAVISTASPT
The description is as above.

The target of experiment [3] is GST-RCAR12 (Arabidopsis thaliana) (UniProt Q8VZS8). The description is as above.
Experiment [4] has as its target T3, cYFP-RCAR13 (Arabidopsis thaliana) (UniProt Q9SSM7).
T3 sequence: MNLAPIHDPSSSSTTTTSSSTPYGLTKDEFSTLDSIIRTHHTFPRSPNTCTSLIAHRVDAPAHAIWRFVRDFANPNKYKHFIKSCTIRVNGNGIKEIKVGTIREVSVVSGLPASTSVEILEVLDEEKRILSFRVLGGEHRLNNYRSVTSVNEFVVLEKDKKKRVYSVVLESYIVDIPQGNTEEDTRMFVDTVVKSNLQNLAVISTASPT
Description: split reporter; BiFC: nYFP and cYFP fusions co-expressed in N. benthamiana leaf cells by Agrobacterium infiltration; YFP imaged by confocal microscopy after 2 d.

The target in experiment [5] is T4, RCAR9-YFP^N (Arabidopsis thaliana) (UniProt Q8S8E3).
T4 sequence: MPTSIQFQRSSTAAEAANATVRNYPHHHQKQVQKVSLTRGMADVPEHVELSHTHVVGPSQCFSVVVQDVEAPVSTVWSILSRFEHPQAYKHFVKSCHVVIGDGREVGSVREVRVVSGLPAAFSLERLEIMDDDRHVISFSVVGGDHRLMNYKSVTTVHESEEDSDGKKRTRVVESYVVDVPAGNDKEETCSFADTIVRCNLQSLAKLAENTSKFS
The description is as above.

For experiment [6], the target named is T5, cYFP-RCAR14 (Arabidopsis thaliana) (UniProt O80992).
T5 sequence: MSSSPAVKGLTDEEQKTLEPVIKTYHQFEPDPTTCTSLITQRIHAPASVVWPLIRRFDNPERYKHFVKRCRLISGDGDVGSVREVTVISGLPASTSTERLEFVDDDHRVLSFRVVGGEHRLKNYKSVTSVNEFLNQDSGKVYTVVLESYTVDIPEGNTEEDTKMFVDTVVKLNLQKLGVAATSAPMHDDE
The experiment is described as above.

Experiment [7] has as its target cYFP-RCAR12 (Arabidopsis thaliana) (UniProt Q8VZS8). The experiment is described as above.
Experiment [8] deals with 3*flag-RCAR12 (Arabidopsis thaliana) (UniProt Q8VZS8). The experiment is described as follows: co-IP; 3*HA-CARK1 forms and 3*Flag-RCARs transiently expressed in N. benthamiana; crude extracts in IP buffer (50 mM HEPES pH 7.5, 150 mM NaCl, 1% Triton X-100); Anti-Flag M2 magnetic beads; anti-HA blot.
The target of experiment [9] is T6, 3*flag-RCAR13 (Arabidopsis thaliana) (UniProt Q9SSM7).
T6 sequence: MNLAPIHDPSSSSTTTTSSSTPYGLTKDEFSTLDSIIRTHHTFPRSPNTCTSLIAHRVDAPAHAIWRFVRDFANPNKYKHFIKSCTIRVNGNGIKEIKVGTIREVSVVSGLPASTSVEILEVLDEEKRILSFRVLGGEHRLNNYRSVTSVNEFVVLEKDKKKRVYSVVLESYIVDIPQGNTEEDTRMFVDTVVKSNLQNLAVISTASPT
The description is as above.

This note sets out measurements from publication PMC6322571, “CARK1 phosphorylates subfamily III members of ABA receptors” (Journal of Experimental Botany, 2018).

No constants are given. Whether binding was seen depends on the method and setting. For some assays here: Binding seen in cells or lysates may run through a third protein. Some results given as binding are weak or reduced against the parent protein; the word gives no strength. Where a sequence is shown, tags or fusion partners need not be part of it.

B1: His-CARK1-KD^N204A (domain or fragment, UniProt Q9LUT0 50-353)
chain: QPISVAAIPADELRDITDNYGSKSLIGEGSYGRVFYGILKSGKAAAIKKLDSSKQPDQEFLAQVSMVSRLRQENVVALLGYCVDGPLRVLAYEYAPNGSLHDILHGRKGVKGAQPGPVLSWHQRVKIAVGAARGLEYLHEKANPHVIHRDIKSSAVLLFDDDVAKIADFDLSNQAPDMAARLHSTRVLGTFGYHAPEYAMTGTLSTKSDVYSFGVVLLELLTGRKPVDHTLPRGQQSVVTWATPKLSEDKVKQCVDARLNGEYPPKAVAKLAAVAALCVQYEADFRPNMSIVVKALQPLLNPPR
Regarding B1, the binding entry in experiment [1], in experiment [2] and in [3] was “no binding (tested: 50 ug of each protein)” throughout.

B2: CARK1-nYFP (full-length CARK1 fused to a YFP fragment) (enzyme, UniProt Q9LUT0 1-364)
chain: MGCFGCCGGGEDFRRVSETGPKPVHNTGGYNGGHHQRADPPKNLPVIQMQPISVAAIPADELRDITDNYGSKSLIGEGSYGRVFYGILKSGKAAAIKKLDSSKQPDQEFLAQVSMVSRLRQENVVALLGYCVDGPLRVLAYEYAPNGSLHDILHGRKGVKGAQPGPVLSWHQRVKIAVGAARGLEYLHEKANPHVIHRDIKSSNVLLFDDDVAKIADFDLSNQAPDMAARLHSTRVLGTFGYHAPEYAMTGTLSTKSDVYSFGVVLLELLTGRKPVDHTLPRGQQSVVTWATPKLSEDKVKQCVDARLNGEYPPKAVAKLAAVAALCVQYEADFRPNMSIVVKALQPLLNPPRSAPQTPHRNPY
For the molecule B2, the binding result is “binds” in [4], “no binding” in [5], “binds” in experiment [6] and “binds” in experiment [7].

B3: 3*HA-CARK1 (enzyme, UniProt Q9LUT0 1-364)
chain: MGCFGCCGGGEDFRRVSETGPKPVHNTGGYNGGHHQRADPPKNLPVIQMQPISVAAIPADELRDITDNYGSKSLIGEGSYGRVFYGILKSGKAAAIKKLDSSKQPDQEFLAQVSMVSRLRQENVVALLGYCVDGPLRVLAYEYAPNGSLHDILHGRKGVKGAQPGPVLSWHQRVKIAVGAARGLEYLHEKANPHVIHRDIKSSNVLLFDDDVAKIADFDLSNQAPDMAARLHSTRVLGTFGYHAPEYAMTGTLSTKSDVYSFGVVLLELLTGRKPVDHTLPRGQQSVVTWATPKLSEDKVKQCVDARLNGEYPPKAVAKLAAVAALCVQYEADFRPNMSIVVKALQPLLNPPRSAPQTPHRNPY
As for B3, the binding entry in experiment [8] and in experiment [9] was “binds” throughout.

B4: 3*HA-CARK1^N204A (enzyme, UniProt Q9LUT0 1-364)
chain: MGCFGCCGGGEDFRRVSETGPKPVHNTGGYNGGHHQRADPPKNLPVIQMQPISVAAIPADELRDITDNYGSKSLIGEGSYGRVFYGILKSGKAAAIKKLDSSKQPDQEFLAQVSMVSRLRQENVVALLGYCVDGPLRVLAYEYAPNGSLHDILHGRKGVKGAQPGPVLSWHQRVKIAVGAARGLEYLHEKANPHVIHRDIKSSAVLLFDDDVAKIADFDLSNQAPDMAARLHSTRVLGTFGYHAPEYAMTGTLSTKSDVYSFGVVLLELLTGRKPVDHTLPRGQQSVVTWATPKLSEDKVKQCVDARLNGEYPPKAVAKLAAVAALCVQYEADFRPNMSIVVKALQPLLNPPRSAPQTPHRNPY
For B4, the binding entry in experiment [8] and in experiment [9] was “no binding” each time.

B5: CARK1^N204A-nYFP (full-length mutant CARK1 fused to a YFP fragment) (enzyme, UniProt Q9LUT0 1-364)
chain: MGCFGCCGGGEDFRRVSETGPKPVHNTGGYNGGHHQRADPPKNLPVIQMQPISVAAIPADELRDITDNYGSKSLIGEGSYGRVFYGILKSGKAAAIKKLDSSKQPDQEFLAQVSMVSRLRQENVVALLGYCVDGPLRVLAYEYAPNGSLHDILHGRKGVKGAQPGPVLSWHQRVKIAVGAARGLEYLHEKANPHVIHRDIKSSAVLLFDDDVAKIADFDLSNQAPDMAARLHSTRVLGTFGYHAPEYAMTGTLSTKSDVYSFGVVLLELLTGRKPVDHTLPRGQQSVVTWATPKLSEDKVKQCVDARLNGEYPPKAVAKLAAVAALCVQYEADFRPNMSIVVKALQPLLNPPRSAPQTPHRNPY
Regarding B5, the binding result in experiment [4], in experiment [6] and in experiment [7] was “no binding” each time.
